Data taken from publication PMC4336329 (PLoS ONE, 2015).
The whole screen tested about 310,000 compounds, of which about 14,000 (4.5%) showed an effect of 50% or more. The effect is printed as a negative number. Some of the results follow.

target: human ether-à-go-go-related gene (hERG) potassium channel (human, UniProt Q12809); assay: primary screen, population patch clamp on CHO cells stably expressing hERG
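Further: peak tail current of the secondary pulse compared with the same well before compound.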

Chain of human ether-à-go-go-related gene (hERG) potassium channel (Q12809 whole entry, looked up): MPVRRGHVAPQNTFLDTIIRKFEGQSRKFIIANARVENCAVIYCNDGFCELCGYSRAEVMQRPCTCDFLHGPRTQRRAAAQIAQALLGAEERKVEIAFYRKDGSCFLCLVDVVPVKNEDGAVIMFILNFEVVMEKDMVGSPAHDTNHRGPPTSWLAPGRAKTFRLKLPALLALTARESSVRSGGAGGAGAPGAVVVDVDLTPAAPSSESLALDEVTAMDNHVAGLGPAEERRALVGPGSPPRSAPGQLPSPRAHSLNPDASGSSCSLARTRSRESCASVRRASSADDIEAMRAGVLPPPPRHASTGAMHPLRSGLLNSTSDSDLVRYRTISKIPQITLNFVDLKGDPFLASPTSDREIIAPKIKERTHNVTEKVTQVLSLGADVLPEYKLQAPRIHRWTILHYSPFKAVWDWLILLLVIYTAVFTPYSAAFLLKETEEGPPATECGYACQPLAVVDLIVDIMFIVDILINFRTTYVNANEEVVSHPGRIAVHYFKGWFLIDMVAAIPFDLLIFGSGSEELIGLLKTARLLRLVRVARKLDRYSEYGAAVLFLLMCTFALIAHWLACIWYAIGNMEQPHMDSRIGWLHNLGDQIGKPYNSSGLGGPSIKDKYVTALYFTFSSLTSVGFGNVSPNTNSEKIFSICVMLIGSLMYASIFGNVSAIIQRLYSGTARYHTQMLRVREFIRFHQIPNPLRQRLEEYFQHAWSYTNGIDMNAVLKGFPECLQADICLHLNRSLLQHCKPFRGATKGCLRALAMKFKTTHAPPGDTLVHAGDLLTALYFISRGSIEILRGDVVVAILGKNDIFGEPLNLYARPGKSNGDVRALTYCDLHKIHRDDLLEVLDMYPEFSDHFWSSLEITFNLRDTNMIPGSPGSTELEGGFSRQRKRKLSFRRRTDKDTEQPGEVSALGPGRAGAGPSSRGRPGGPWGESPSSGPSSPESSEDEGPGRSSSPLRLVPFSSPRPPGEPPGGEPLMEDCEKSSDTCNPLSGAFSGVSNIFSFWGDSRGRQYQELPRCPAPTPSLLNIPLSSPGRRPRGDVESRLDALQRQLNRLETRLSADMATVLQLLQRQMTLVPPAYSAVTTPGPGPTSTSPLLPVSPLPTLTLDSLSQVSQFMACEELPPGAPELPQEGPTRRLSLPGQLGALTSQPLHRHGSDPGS

SMILES | hERG current change (%, negative = inhibition) at 10uM
COc1ccc(S(=O)(=O)CC(=O)c2cc3cc(Br)ccc3oc2=O)cc1 | 0.2%
O=C(NCCCN1CCCCC1)c1ccc2c(=O)n(CCc3ccccc3)c(=O)[nH]c2c1 | -23.4%
O=C(NCCCN1CCCC1=O)c1cccc(NS(=O)(=O)c2ccc(Br)cc2)c1 | -30.1%
COc1cc2c(cc1OC)C1=C(C#N)CCC(=NC(=O)c3ccco3)N1CC2 | 8.96%
COc1cccc(C(=O)NCC(=O)N/N=C/c2cccc(OC(=O)c3ccc([N+](=O)[O-])cc3)c2)c1 | -10.4%
CCOC(=O)C1CCN(S(=O)(=O)c2ccc(NC(C)=O)c(Cl)c2)CC1 | -30.4%
COc1cc2c(C(=O)NCc3ccccn3)cn(C)c(=O)c2cc1OC | 15.2%
CC(C)(C)NS(=O)(=O)c1ccc(OCC(=O)NCC2CCCO2)cc1 (stereo not drawn) | 2.21%
Cc1ccc(S(=O)(=O)N2c3ccccc3OCC2c2ccccc2)cc1 (stereo not drawn) | 23%
CC(=O)N1CCCC(C(=O)c2ccc3c4c(cccc24)CC3)C1 (stereo not drawn) | -8.18%
Cc1ccc(OCC(=O)Nc2ccccc2N2CCOCC2)c(C)c1 | -3.56%
CS(=O)(=O)N(CC(=O)NC1CC1)c1cccc(F)c1 | 8.92%
COCCNC(=O)C(C)N1c2cccc3cccc(c23)S1(=O)=O (stereo not drawn) | 11.7%
NC(=O)c1ccc(NC(=O)Cc2cccs2)cc1 | 15.1%
COC(=O)C(C)Sc1ccc2nnc(-c3cccc(F)c3)n2n1 (stereo not drawn) | -58%
CN(C(=O)c1cccc(C(=O)N(C)c2ccccc2)c1)c1ccccc1 | 12.9%
COc1ccc(NCCNc2ccc(OC)cc2)cc1 | -5.95%
O=C(O)c1ccc(OCC(O)Cn2c3ccccc3c3ccccc32)cc1 (stereo not drawn) | -18.5%
CCOC(=O)c1cc2occc2n1CCCN1C(=O)c2ccccc2C1=O | -23.5%
CC(Oc1ccc(Cl)cc1Cl)C(=O)Nc1ccc(OCC(=O)O)cc1 (stereo not drawn) | 34.2%
CN1CCN(C(=O)CCc2nnc3ccc(N4CCC5(CC4)OCCO5)nn23)CC1 | 19.4%
O=C1CC(NCc2ccc(F)cc2)C(=O)N1c1ccccc1 (stereo not drawn) | 4.39%
COc1cccc(-n2ccnc2SCC(=O)Nc2cc(C)on2)c1 | 14.1%

SMILES | hERG current change (%, negative = inhibition) at 10uM
O=C(Cc1c(O)c2ccccc2[nH]c1=O)NCc1ccc(F)cc1 | 12.3%
CC(C)C(=O)Nc1nnc(SCc2cccc(F)c2)s1 | -8.88%
O=C(CN1CCCc2ccccc21)N/N=C/c1ccc(O)cc1O | -29.1%
Cl.N=C(c1cccc([N+](=O)[O-])c1)N1CCCCC1 | 1.62%
Cc1ccc(-c2nc(S(=O)(=O)c3ccc(F)cc3)c(SCC(=O)NCC3CCCO3)o2)cc1 (stereo not drawn) | 6.95%
CCOC(=O)N1CCN(C(=O)c2ccc(Cn3c(=S)[nH]c4ccc(Br)cc4c3=O)cc2)CC1 | 13.3%
CSCCC(NC(=O)COc1ccccc1)C(=O)N1CCOCC1 (stereo not drawn) | -9.88%
CC(C)Oc1c(Br)cc(Br)cc1/C=N/NC(N)=S | 13.1%
CCCCn1nc(C(=O)Oc2ccc3c(C)cc(=O)oc3c2)c2ccccc2c1=O | -21.4%
O=C(NCCCn1ccnc1)C(Cl)(Cl)Cl | -0.517%
O=C(CN(C(=O)CCC(=O)Nc1nccs1)c1cccc(F)c1)NCC1CCCO1 (stereo not drawn) | -1.21%
COc1ccc(NC(=O)c2ccc(NC(=O)COC(=O)c3cnc(C)cn3)cc2)cc1 | -2.52%
O=C(OCc1cnc(Cl)s1)c1ccccc1Cl | -14%
CN(C)C(=S)Nc1ccc([N+](=O)[O-])cc1 | -0.053%
Cc1ccc2c(c1)CC(C)N2S(=O)(=O)c1nnc(NC(=O)CC(C)C)s1 (stereo not drawn) | 34.1%
Cc1ccc(S(=O)(=O)N2[C@@H](c3cccc(Cl)c3)C(C(=O)O)=CC[C@H]2c2ccc3c(c2)OCO3)cc1 | 15.3%
CCn1c(SCC(=O)Nc2cc(OC)ccc2OC)nc2c(c1=O)SCC2 | -14.4%
Nc1ccc2oc3ccccc3c2c1 | -10.3%
CC1(C)CC(=O)C(CC(=O)Nc2cc(C(F)(F)F)ccc2Cl)C(=O)C1 | 14.8%
O=C(NCCCn1ccnc1)c1cc(S(=O)(=O)N2CCOCC2)c(Cl)cc1Cl | 11.8%
CNC(=O)CSCc1cnn(-c2ccccc2)c1-n1cccc1 | -4.68%
COc1ccnc(-n2cccc2/C=N/O)c1C#N | -13.9%
CC(C)C(=O)Nc1ccc(-c2csc(-c3ccccc3)n2)cc1 | 1.32%

SMILES | hERG current change (%, negative = inhibition) at 10uM
CCn1c(=O)c([N+](=O)[O-])c(N2CCN(Cc3ccc4c(c3)OCO4)CC2)c2ccccc21 | -3.18%
Cc1noc(C)c1C(=O)N1CCCC(C(=O)c2cccc(OC(C)C)c2)C1 (stereo not drawn) | -1.08%
COc1ccccc1Nc1ncc(C(=O)N2CCC(C(N)=O)CC2)c2ccccc12 | 1.89%
COC(=O)c1cc2occc2n1CC(=O)Nc1ccc(OC)c(OC)c1OC | 0.151%
Cc1cccc(NC(=O)c2ccc(NC(=O)CC3SC(N4CCCC4)=NC3=O)cc2)n1 (stereo not drawn) | -1.94%
O=C(Nc1cccc(-c2cccc(Cl)c2)c1)C1CCN(CC2CCOC2)CC1 (stereo not drawn) | -77.2%
CCc1nnc(NC(=O)CSc2nnc(CNc3ccc(F)cc3)n2C2CCCCC2)s1 | -6.63%
CC(C)(C)OC(=O)N[C@@H](CC(=O)OCc1ccccc1)C(=O)O | 10.9%
Cc1cc[n+](CC[n+]2ccc(C)cc2)cc1.[Br-] | 16.7%
CN(C)S(=O)(=O)N1CCCN(S(=O)(=O)N(C)C)CC1 | -0.127%
Cc1ccc(C(=O)N/C(=C\c2cccs2)C(=O)N2CCN(C)CC2)cc1C | -70.6%
CCCCCC(=O)Nc1nc2ccccc2[nH]1 | 5.71%
CCc1c(O)nc(SCC(=O)N2CCc3cc(OC)c(OC)cc3[C@@H]2C)[nH]c1=O | 0.651%
O=C(Nc1cccnc1Cl)c1cccs1 | 21.4%
c1ccc(OCc2noc(CN3CCC(C4CCCCC4)C3)n2)cc1 (stereo not drawn) | -12%
CN(C)C(=O)N1CCC(C(=O)NC2CCCCCCC2)CC1 | -0.795%
NS(=O)(=O)c1ccc(NC(=O)COC(=O)c2ccco2)cc1 | 61%
O=C(c1cc(C(=O)c2ccco2)cc(C(=O)c2ccco2)c1)c1ccco1 | 0.697%
O=[N+]([O-])c1cc(Cl)ccc1N1CCCC1 | 5.05%
COc1ccc(S(=O)(=O)N(Cc2cc3cc(C)ccc3[nH]c2=O)CC2CCCO2)cc1 (stereo not drawn) | -0.625%
[O-][n+]1cccc2ncc3cscc3c21 | 24.2%
O=C(Nc1cccc2ccccc12)OC1C=CS(=O)(=O)C1 (stereo not drawn) | 7.41%
CC(NC1CCCCC1)C(=O)NN=C(c1ccccc1)c1ccccc1 (stereo not drawn) | -32.1%

SMILES | hERG current change (%, negative = inhibition) at 10uM
CC1(OC(=O)c2cccs2)C(=O)C=C2C=C(C3CC3)OC=C2C1=O (stereo not drawn) | 9.34%
C=CCNC(=S)Nc1sc2c(c1C#N)CCCC2 | 18.7%
O=C(CSc1ccc(-c2cccnc2)nn1)Nc1ccc(F)c(F)c1 | -37.9%
O=C(COc1ccc(Cl)cc1)NCc1ccccc1 | -10.4%
O=C(CN1C(=O)NC2(CCCC2)C1=O)Nc1cccc(Cl)c1 | 11.6%
COc1ccc(Cc2c(O)nc(SCC(=O)N3CCCCCC3)[nH]c2=O)cc1 | 2.36%
CCOC(=O)C(NCCc1ccc(F)cc1)(NC(=O)CC)C(F)(F)F (stereo not drawn) | 1.9%
Cc1cc(C)cc(NC(=S)N(C)C)c1 | -5.83%
CCC(C)NCCCOc1ccc(C)cc1OC (stereo not drawn) | -18.2%
O=C(Nc1ccc([N+](=O)[O-])cc1)C1COc2ccccc2O1 (stereo not drawn) | 0.793%
O=C(NCCc1ccccc1F)C1CCCN(c2nc3ccccc3s2)C1 (stereo not drawn) | -35.5%
NCc1ccccc1COc1ccccc1.O=C(O)/C=C\C(=O)O | 0.866%
CC(C)CC(=O)c1c[nH]c(C(=O)NCc2ccc(F)cc2)c1 | -3.98%
CC(=Nc1ccccc1)C1=C(O)CSC1=O | -7.93%
O=S(=O)(c1ccc2ccccc2c1)N1CCNCC1 | 5.63%
CC1CCCN(C(=O)COC(=O)c2ccc[nH]c2=O)C1 (stereo not drawn) | 14.8%
CCCC(C(=O)NC1CCCC1)N(CCCN1CCOCC1)C(=O)c1snc(C(N)=O)c1N (stereo not drawn) | -19.7%
COc1ccc(S(=O)(=O)N[C@@H](C)C(=O)OCC(=O)Nc2cc3oc4ccccc4c3cc2OC)cc1 | 3.12%
c1csc(-c2cnc3ccccc3n2)c1 | -8.21%
C[C@@H]1CCC[C@]2(O[C@@H](CCO)C[C@@H](O)[C@@H]2O)O1 | 6.32%
Cc1n[nH]c(C)c1S(=O)(=O)N1CCC(C(=O)N2CCn3c2nc2ccccc23)CC1 | -3.79%
